According to PubChem BioAssay AID686979 (National Center for Advancing Translational Sciences (NCATS), 2013):
Out of some 420,000 compounds screened, about 50,000 (12%) were called active. Inconclusive means that the source gave no clear call. Such entries were picked first, then a sample of the others. The call rests on the fitted dose curve; in most records, active means well fitted inhibition curve with a large enough effect; inconclusive means small, poorly fitted or top-dose-only effect; inactive means flat fitted curve, though single readings scatter. No potency is given beside an inconclusive call; the fits are too rough.

assay: qHTS for Inhibitors of human tyrosyl-DNA phosphodiesterase 1 (TDP1): qHTS in cells in presence of CPT; details: chicken DT40 Tdp1-/-;hTDP1 cells + 20 nM CPT, ATP luminescence, 48 h; series mostly up to 46.2 µM; further: nearly all actives have a fitted effect of over 55% in size
How it was run: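 Chicken DT40 Tdp1-/- cells complemented with human TDP1, 400 cells/well, exposed to compounds plus 20 nM camptothecin for at least 48 h at 37 C; viability read as ATP content by CellTiter-Glo luminescence.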
Potency means the concentration at half of the fitted maximal effect; tags describe the fitted curve by direction and shape.

SMILES | Potency
C[C@]12CC[C@@H](O)C[C@@H]1CC[C@@H]1[C@@H]2CC[C@]2(C)C(=O)CC[C@@H]12 | inactive
COC(=O)C1=C(c2ccccc2OCc2ccccc2)C[C@@H]2CC[C@H]1N2C(=O)NCc1ccc(OC)cc1 | inconclusive [inhibitor, single point]
Cc1ccccc1CCNCc1ccc(Br)cc1 | inconclusive [inhibitor, single point]
OCC1CCCN2CCCCC12 (stereo not given) | inactive
COc1cc(CC(C)N)cc2c1OCO2 (stereo not given) | inconclusive [inhibitor, full curve]
O=C(Nc1cc[c]([Sb](=[O])([OH])[OH])cc1)c1ccccc1 | inactive
COC(=O)C1=C(c2cc3ccccc3s2)C[C@@H]2CC[C@H]1N2C | inactive
Cc1cccn2c(=O)c3c(nc12)N1CCCCC1C1(C3)C(=O)N(C)C(=O)N(C)C1=O (stereo not given) | inactive
CCCNC(=O)N1[C@H]2CC[C@@H]1C(C(=O)OC)=C(c1cccc(Cl)c1)C2 | inconclusive [inhibitor, single point]
CSCCC(c1nnnn1-c1ccc2c(c1)OCCO2)N1CCC(n2c(=O)[nH]c3ccccc32)CC1 (stereo not given) | active: 7.31 µM
CN(C)C1(CNC(=O)c2ccc(NS(=O)(=O)c3ccc(Cl)c(Cl)c3)cc2)CCCCC1 | inconclusive [inhibitor, single point]
O=c1[nH]c(=S)n(Cc2ccc(F)cc2)c(O)c1/C=N/N1CCCCC1 | inactive
O=C(COc1ccc2ccccc2c1)N1CCN(Cc2c[nH]c3ccccc23)CC1 | active: 2.06 µM
COc1ccc(N2C(=O)NC(=O)/C(=C\c3cn(C)c4ccccc34)C2=O)cc1 | inactive
C=C[C@@]12CN(C)[C@H]3[C@H]1[C@@]1(C(=O)Nc4ccccc41)C1CC2[C@@H]3CO1 | inactive
C/C1=C\[C@@H](C)C/C=C/[C@H]2[C@@H]3O[C@]3(C)[C@@H](C)[C@H]3[C@H](Cc4c[nH]c5ccccc45)NC(=O)[C@]32C(=O)/C=C/C(=O)[C@@H]1O | active: 0.146 µM
COc1cc(O)cc2c1C(=O)O[C@@H](C)CCCC(=O)CCCCC2 | inconclusive [inhibitor, single point]
COC(=O)C1=C(c2ccc(F)cc2OCc2ccccc2)C[C@@H]2CC[C@H]1N2C(=O)NCc1ccccc1C(F)(F)F | inconclusive [inhibitor, single point]
COC(=O)C1C(C(=O)O)C2(Cl)C(Cl)=C(Cl)C1(Cl)C2(Cl)Cl (stereo not given) | inactive
CCC(C)n1c(O)c(/C=N/Nc2nc3c(c(=O)n(C)c(=O)n3C)n2C)c(=O)[nH]c1=S (stereo not given) | inactive
COc1ccc(C2=C(C(C)=O)Sc3nnc(-c4ccc(C)cc4)n3N2C(C)=O)cc1OC | active: 2.91 µM
Cc1ccc(-n2c(O)c(/C=C/C=Nc3ccccc3)c(=O)[nH]c2=O)cc1 | inactive
CCCC(=O)O[C@]1(C(=O)COC(=O)CC)[C@@H](C)C[C@H]2[C@@H]3CCC4=CC(=O)C=C[C@]4(C)[C@@]3(F)[C@@H](O)C[C@@]21C | inconclusive [inhibitor, single point]

SMILES | Potency
O=C1CC(N2CC=C(c3ccccc3)CC2)C(=O)N1c1ccc(F)cc1 (stereo not given) | active: 14.6 µM
Cc1cccc(C)c1-n1nnnc1C(c1cccs1)N1CCC(n2c(=O)[nH]c3ccccc32)CC1 (stereo not given) | inconclusive [inhibitor, single point]
O=C1NC(=O)C(Cc2ccccc2)(Cc2ccccc2)C(=O)N1 | inconclusive [inhibitor, partial curve, poor fit]
COc1ccc(NC(=O)CCc2nc(C3=CCN(Cc4cccc(Cl)c4)CC3)no2)cc1OC | active: 16.4 µM
Fc1ccc2c(c1)nnn2C1CCN(Cc2ccccc2)CC1 | inactive
O=C(Cn1nc(-c2ccccc2)ccc1=O)N1CCC2(CC1)OCCO2 | inactive
CS(=O)(=O)c1ccc(C(=O)C2C(=O)CCCC2=O)c([N+](=O)[O-])c1 | inactive
COc1cc2c3cc1Oc1cc(ccc1O)C[C@@H]1c4c(cc(OC)c(O)c4Oc4cccc(c4)C[C@@H]3N(C)CC2)CC[N+]1(C)C | inactive
O=C1c2ccccc2-c2c1nc1c([n+]2[O-])CCCC1 | active: 11.6 µM
COc1cc2c(cc1OC)-c1c(O)c(OC)cc3c1[C@H](C2)N(C)CC3 | inconclusive [inhibitor, partial curve, poor fit]
COC(=O)c1ccccc1NC(=O)c1cc(-c2ccccc2O)no1 | inconclusive [inhibitor, partial curve]
CCOc1ccc2c3c1O[C@H]1[C@@H](O)C=C[C@H]4[C@@H](C2)N(C)CC[C@@]341 | inactive
Cc1ccc(C(=O)c2cn(CC(=O)Nc3ccc(C(C)C)cc3)c3nc(C)ccc3c2=O)cc1 | active: 6.51 µM
CC12CC[C@H]3[C@@H](CCC4(O)C[C@H](O)CCC34/C=N/NC(=O)Cc3ccccc3)C1(O)CCC2C1=CC(=O)OC1 (stereo not given in full) | inactive
O=C(c1ccccc1F)c1cn(CC(=O)N2CCOCC2)c2ccccc12 | inactive
Cc1oc(-c2ccccc2Cl)nc1CN1C(=O)CN=C(c2ccccc2)c2cc(Cl)ccc21 | inconclusive [inhibitor, single point]
CC1CN=C(NCc2ccncc2)S1 (stereo not given) | inactive
COc1cccc(CNC(=O)c2cc3c(-c4ccccc4F)nn(C)c3s2)c1 | inconclusive [inhibitor, single point]
CC1(C)[C@@H](O)C[C@H]2[C@](C)(O)[C@@H]3CC[C@H]4[C@@H](O)[C@@]3(C[C@@H](O)[C@@]21O)C[C@@]4(C)O | inactive
CCOc1cc2c(cc1OCC)-n1cccc1C(c1ccc(OC)c(OC)c1)NC2 (stereo not given) | inconclusive [inhibitor, single point]
O=P(Oc1ccc(Cl)cc1)(N1CC1)N1CC1 | active: 6.51 µM
CN1C(=O)C(=Cc2ccc(N3CCCCCC3)o2)C(=O)N(C)C1=S | inconclusive [inhibitor, single point]
